Results taken from the antibiotic and cytotoxicity screens of Wong et al. (2023).
Some of the results follow.

Tested on: HSkMC (human skeletal muscle cells)
Assay: cytotoxicity call (relative viability < 0.9)
Conditions: 10 µM

Row | Compound | cytotoxicity call
1 | C[C@H](CO)N1C[C@H](C)[C@@H](CN(C)C(=O)Nc2ccc3c(c2)OCO3)Oc2c(NC(=O)Nc3ccc(C(F)(F)F)cc3)cccc2C1=O | active
2 | O=C(C[C@@H]1C=C[C@@H](NC(=O)CN2CCOCC2)[C@H](CO)O1)NC1CCC1 | inactive
3 | C#CCN1[C@H](/C=C/C2CC2)[C@H](Cc2ccccc2)OC(=O)[C@@H]1Cc1ccc(-n2cc(COc3ccccc3/C=C(C)/C=C/C(=O)NO)nn2)cc1 | inactive
4 | C[C@@H]1CN([C@H](C)CO)C(=O)c2cccc(NS(C)(=O)=O)c2O[C@H]1CN(C)S(=O)(=O)c1ccc(Cl)cc1 | inactive
5 | C=CC(=O)N[C@@H]1CN(c2nc(Nc3cn(C)nc3OC)c3ncn(C)c3n2)C[C@H]1F | inactive
6 | Cc1ccc(S(=O)(=O)Nc2ccc3c(c2)C(=O)N([C@@H](C)CO)C[C@H](C)[C@@H](CN(C)C(=O)Nc2ccc(C(F)(F)F)cc2)O3)cc1 | inactive
7 | Cc1noc(C)c1S(=O)(=O)Nc1ccc2c(c1)C(=O)N([C@@H](C)CO)C[C@@H](C)[C@H](CN(C)C)OCCCC[C@@H](C)O2 | inactive
8 | CC(C)NC(=O)Nc1ccc2c(c1)CC(=O)N([C@H](C)CO)C[C@H](C)[C@@H](CN(C)C(=O)Nc1ccc3c(c1)OCO3)O2 | inactive
9 | COc1ccc(NC(=O)Nc2ccc3c(c2)C(=O)N([C@@H](C)CO)C[C@@H](C)[C@H](CN(C)Cc2ccc4c(c2)OCO4)OCCCC[C@H](C)O3)cc1 | inactive
10 | CCOC(=O)N(C)C[C@@H]1OCc2cn(nn2)CCCC(=O)N([C@@H](C)CO)C[C@H]1C | inactive
11 | C[C@@H]1CN([C@H](C)CO)C(=O)c2cc(NC(=O)c3ccncc3)ccc2O[C@@H](C)CCCCO[C@H]1CN(C)S(=O)(=O)c1cn(C)cn1 | inactive
12 | COc1ccc(/C=C/CN2CCC(C(=O)N[C@@H](c3ccc(F)cc3)c3ccc4ccccc4n3)CC2)cc1 | inactive
13 | C[C@@H]1CCCCO[C@H](CN(C)Cc2ccc(Cl)c(Cl)c2)[C@@H](C)CN([C@H](C)CO)C(=O)c2cc(NC(=O)CCC(F)(F)F)ccc2O1 | inactive
14 | CO[C@H](CCO)[C@H](O)c1ccc(O)c(F)c1 | inactive
15 | COc1ccc2c3c(n(c2c1)C)[C@@H](CO)N(C[C@]13CCN(CC1)Cc1ccncc1)C(=O)CN1CCOCC1 | inactive
16 | CSc1nc2nc(N)nc(N)c2s1 | inactive
17 | COc1ccc2c3c(n(c2c1)C)[C@H](CO)N(C[C@]13CN(Cc2ccncc2)C1)C(=O)CN1CCOCC1 | inactive
18 | COc1ccc(NC(=O)Nc2ccc3c(c2)CC(=O)N([C@H](C)CO)C[C@@H](C)[C@@H](CN(C)Cc2ccc(-c4ccccc4)cc2)O3)cc1 | inactive
19 | CN([NH2+][O-])C(=O)N[C@@H]1[C@@H](O)[C@H](O)[C@@H](CO)O[C@@H]1O | inactive
20 | C[C@H]1CCCCO[C@@H](CN(C)CC2CCCCC2)[C@@H](C)CN([C@@H](C)CO)C(=O)c2cc(NS(=O)(=O)c3ccc(Cl)cc3)ccc2O1 | inactive

Row | Compound | cytotoxicity call
21 | C[C@@H]1CN([C@H](C)CO)C(=O)c2cccc(NS(=O)(=O)c3ccc(Cl)cc3)c2O[C@H]1CN(C)Cc1ccc(Oc2ccccc2)cc1 | inactive
22 | C[C@@H]1CCCCO[C@H](CN(C)S(=O)(=O)c2cn(C)cn2)[C@@H](C)CN([C@@H](C)CO)C(=O)c2cc(NC(=O)CCCN(C)C)ccc2O1 | inactive
23 | CC(=O)Nc1ccc(S(=O)(=O)c2ccc(NC(C)=O)cc2)cc1 | inactive
24 | Cc1noc(C)c1NC(=O)N(C)C[C@@H]1Oc2ccc(NC(=O)CCN3CCOCC3)cc2CC(=O)N([C@H](C)CO)C[C@H]1C | inactive
25 | Cc1noc(C)c1S(=O)(=O)Nc1ccc2c(c1)CC(=O)N([C@H](C)CO)C[C@H](C)[C@@H](CN(C)S(=O)(=O)c1ccc(F)cc1)O2 | inactive
26 | CC(=O)N1CCc2nc(N)sc2C1 | inactive
27 | Cc1ccc(S(=O)(=O)N(C)C[C@@H]2OCCCC[C@@H](C)Oc3ccc(NC(=O)Nc4c(C)noc4C)cc3C(=O)N([C@H](C)CO)C[C@@H]2C)cc1 | inactive
28 | COc1ccccc1NC(=O)N(C)C[C@@H]1OCc2ccccc2-c2c(n(C)c3ccccc23)C(=O)N([C@H](C)CO)C[C@H]1C | inactive
29 | COc1ccc([C@@H]2CC=CC[C@H](C)Oc3ccccc3C(=O)N(C)[C@H](Cc3ccccc3)C(=O)N2)c(OC)c1 | inactive
30 | Cc1noc(C)c1NC(=O)Nc1cccc2c1O[C@@H](CN(C)S(C)(=O)=O)[C@H](C)CN([C@H](C)CO)C2=O | inactive
31 | COCC(=O)N1[C@@H]2c3ccc(C4=CCCCC4)c(=O)n3C[C@@H]2[C@@H](CO)[C@@H]1C(=O)N1CCN(C)CC1 | inactive
32 | C[C@H]1CN([C@@H](C)CO)C(=O)c2cc(NC(=O)Nc3cccc4ccccc34)ccc2O[C@H]1CN(C)C(=O)Nc1ccc(F)cc1 | inactive
33 | CC(C)CC#Cc1cnc2c(c1)C(=O)N([C@@H](C)CO)C[C@@H](C)[C@@H](CN(C)C(=O)CCN1CCCCC1)O2 | inactive
34 | C[C@@H]1CN([C@H](C)CO)C(=O)c2cc(NC(=O)c3ccccc3)ccc2O[C@@H](C)CCCCO[C@H]1CN(C)C(=O)Nc1ccc2c(c1)OCO2 | inactive
35 | COc1ccc(NC(=O)N(C)C[C@@H]2Oc3ccc(NC(=O)CCCCCC(=O)Nc4ccccc4N)cc3C(=O)N([C@@H](C)CO)C[C@@H]2C)cc1 | inactive
36 | C[C@H]1CN([C@@H](C)CO)C(=O)Cc2cc(NC(=O)C3CC3)ccc2O[C@H]1CN(C)C(=O)Nc1ccc(F)cc1 | inactive
37 | COCCc1nnc(CCOC)n1N | inactive
38 | Cc1cccc(/C=C2\CS/C(=C\c3cccc(C)c3)C2=O)c1 | inactive
39 | COc1ccccc1-c1cnc2c(c1)C(=O)N([C@@H](C)CO)C[C@@H](C)[C@H](CN(C)C(=O)c1cccnc1)O2 | inactive
40 | O=C(N/N=C/[C@@H](O)[C@H](O)[C@H](O)CO)c1ccccc1O | inactive
